In patent US20240239861A1, “GLUCAGON-RECEPTOR SELECTIVE POLYPEPTIDES AND METHODS OF USE THEREOF” (i2O Therapeutics, Inc., priority 2016, published 2024):
For some of these results: At least one peptide structure holds a part that was inferred or is arguable (an end, a ring closure or a residue). For some of these results: At least one compound was matched to its structure with a doubt left. *1 amine or outer side, *2 acyl side, *3 side chain or, on linkers, in order; H or OH if unused. Where a SMILES comes first, the peptide text is derived from it. Bridges are numbered along the chain shown (N, C = ends). Side-chain parts run from the residue outwards. [ ]: non-standard residue; d: D form. The star is where a group is joined. C18 diacid = O=C(O)CCCCCCCCCCCCCCCCC(=O)*; γGlu = O=C(O)[C@H](CCC(=O)[*:2])N[*:1]; AEEA = NCCOCCOCC(=O)O; Aib = CC(C)(N)C(=O)O

Columns and labels:
[1] = biological target: human GLP-1R (Homo sapiens, UniProt P43220); test: Peptide-receptor mediated cAMP accumulation (LANCE Ultra cAMP) in CHO-K1 cells transfected with human GLP-1R; format: cell-based; conditions: Table 7
[2] = biological target: human GCGR (Homo sapiens, UniProt P47871); test: Peptide-receptor mediated cAMP accumulation (LANCE Ultra cAMP) in CHO-K1 cells transfected with human GCGR; format: cell-based; conditions: Table 7; glucagon receptor (GluR)
[3] = Body weight change in DIO Long Evans rats after 13 days continuous dosing by osmotic pump; conditions: DIO LE rats; for weight loss compared to vehicle control after 13 days: single agent
[4] = Serum triglycerides, liver fat content and liver weight in Zucker Diabetic Fatty (ZDF) rats after 14 days; format: in vivo, rat; conditions: for serum triglycerides after 14 days: continuous dosing

human GLP-1R, sequence (P43220 24-463): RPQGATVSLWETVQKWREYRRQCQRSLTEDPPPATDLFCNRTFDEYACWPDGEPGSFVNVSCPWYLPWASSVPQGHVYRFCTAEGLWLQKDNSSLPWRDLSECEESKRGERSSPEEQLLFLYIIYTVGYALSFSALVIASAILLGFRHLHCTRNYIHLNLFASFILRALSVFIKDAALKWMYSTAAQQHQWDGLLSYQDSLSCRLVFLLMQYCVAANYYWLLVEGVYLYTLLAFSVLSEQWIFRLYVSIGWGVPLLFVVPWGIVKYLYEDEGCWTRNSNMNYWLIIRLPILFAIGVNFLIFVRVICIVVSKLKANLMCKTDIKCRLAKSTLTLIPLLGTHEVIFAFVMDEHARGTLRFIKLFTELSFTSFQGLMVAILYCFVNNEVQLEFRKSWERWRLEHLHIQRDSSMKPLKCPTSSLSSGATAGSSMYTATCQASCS
human GCGR, sequence (P47871 26-477): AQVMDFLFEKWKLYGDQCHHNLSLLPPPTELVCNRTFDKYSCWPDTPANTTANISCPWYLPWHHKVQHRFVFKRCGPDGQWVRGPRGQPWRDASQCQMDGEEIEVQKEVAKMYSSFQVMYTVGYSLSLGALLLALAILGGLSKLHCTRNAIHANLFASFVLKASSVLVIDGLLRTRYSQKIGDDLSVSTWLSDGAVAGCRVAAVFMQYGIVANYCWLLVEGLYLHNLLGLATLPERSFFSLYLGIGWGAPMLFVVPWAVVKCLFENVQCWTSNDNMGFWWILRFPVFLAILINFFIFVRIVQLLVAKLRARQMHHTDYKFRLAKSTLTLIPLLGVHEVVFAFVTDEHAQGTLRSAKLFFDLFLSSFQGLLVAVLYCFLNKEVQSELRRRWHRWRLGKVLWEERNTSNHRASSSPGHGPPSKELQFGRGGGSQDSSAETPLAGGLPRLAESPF

CC(C)C[C@H](NC(=O)[C@H](Cc1ccc(O)cc1)NC(=O)[C@H](CCCCN)NC(=O)[C@H](CO)NC(=O)[C@H](Cc1ccc(O)cc1)NC(=O)[C@H](CC(=O)O)NC(=O)[C@H](CO)NC(=O)[C@@H](NC(=O)[C@H](Cc1ccccc1)NC(=O)[C@@H](NC(=O)CNC(=O)[C@H](CCC(N)=O)NC(=O)[C@H](CO)NC(=O)[C@@H](N)Cc1ccc(O)cc1)[C@@H](C)O)[C@@H](C)O)C(=O)N[C@@H](CC(=O)O)C(=O)N[C@@H](C)C(=O)N[C@@H](C)C(=O)N[C@@H](CCCNC(=N)N)C(=O)N[C@@H](C)C(=O)N[C@@H](CCC(N)=O)C(=O)N[C@@H](CCC(=O)O)C(=O)N[C@@H](Cc1ccccc1)C(=O)N[C@H](C(=O)N[C@@H](CCCCN)C(=O)N[C@@H](Cc1c[nH]c2ccccc12)C(=O)N[C@@H](CC(C)C)C(=O)N[C@@H](CCC(=O)O)C(=O)N[C@@H](CC(=O)O)C(=O)N[C@@H](CCC(=O)O)C(=O)N1CCC[C@H]1C(=O)N[C@@H](CCCCN)C(=O)N[C@@H](CO)C(=O)N[C@@H](CCCCNC(=O)COCCOCCNC(=O)COCCOCCNC(=O)CC[C@H](NC(=O)CCCCCCCCCCCCCCCCC(=O)O)C(=O)O)C(=O)N[C@@H](CO)C(=O)N1CCC[C@H]1C(=O)N1CCC[C@H]1C(=O)N1CCC[C@H]1C(=O)N[C@@H](CO)C(N)=O)C(C)C [Compound B37] (H-YSQGTFTSDYSKYLDAARAQEFVKWLEDEPKSK([AEEA-AEEA-γGlu-C18 diacid])SPPPS-NH2)
GLP-1R pEC50 [1]: 6.2 | GluR pEC50 [2]: 10.1

CC(C)C[C@H](NC(=O)[C@H](Cc1ccc(O)cc1)NC(=O)[C@H](CCCCN)NC(=O)[C@H](CO)NC(=O)[C@H](Cc1ccc(O)cc1)NC(=O)[C@H](CC(=O)O)NC(=O)[C@H](CO)NC(=O)[C@@H](NC(=O)[C@H](Cc1ccccc1)NC(=O)[C@@H](NC(=O)CNC(=O)[C@H](CCC(N)=O)NC(=O)[C@H](CO)NC(=O)[C@@H](N)Cc1ccc(O)cc1)[C@@H](C)O)[C@@H](C)O)C(=O)N[C@@H](CC(=O)O)C(=O)N[C@@H](CO)C(=O)N[C@H]1CCCCNC(=O)CC[C@@H](C(=O)N[C@@H](Cc2ccccc2)C(=O)N[C@H](C(=O)N[C@H]2CCCCNC(=O)CC[C@@H](C(=O)N[C@H](C(=O)O)[C@@H](C)O)NC(=O)[C@H](CC(=O)O)NC(=O)[C@H](CC(C)C)NC(=O)[C@H](Cc3c[nH]c4ccccc34)NC2=O)C(C)C)NC(=O)[C@H](CCC(N)=O)NC(=O)[C@H](C)NC(=O)[C@H](CCCNC(=N)N)NC1=O [Compound A104] (H-YSQGTFTSDYSKYLDSKRAQEFVKWLDET-OH; lactam 17-21, 24-28)
weight loss vs. vehicle control after 13 days, combination ([3]; 0.03 mg/kg/d in combination with Exendin-4 at 0.01 mg/kg/d): 6.7% | weight loss vs. vehicle control after 13 days, combination ([3]; 0.1 mg/kg/d in combination with Exendin-4 at 0.01 mg/kg/d): 11.7% | weight loss compared to vehicle control after 13 days ([3]; 0.1 mg/kg/day): 4.2% | weight loss vs. vehicle control after 13 days, combination ([3]; 0.3 mg/kg/d in combination with Exendin-4 at 0.01 mg/kg/d): 24.3% | weight loss compared to vehicle control after 13 days ([3]; 0.3 mg/kg/day): 16.5% | weight loss vs. vehicle control after 13 days, combination ([3]; 1 mg/kg/d in combination with Exendin-4 at 0.01 mg/kg/d): 29.7% | weight loss compared to vehicle control after 13 days ([3]; 1.0 mg/kg/day): 25.2% | liver fat content after 14 days [4]: dose-dependently reduced | liver weights after 14 days [4]: dose-dependently reduced | serum triglycerides after 14 days ([4]; in combination with exenatide (Ex4)): dose-dependent decreases | serum triglycerides after 14 days ([4]; singly): dose-dependent decreases

CC(C)C[C@H](NC(=O)[C@H](Cc1ccc(O)cc1)NC(=O)[C@H](CCCCN)NC(=O)[C@H](CO)NC(=O)[C@H](Cc1ccc(O)cc1)NC(=O)[C@H](CC(=O)O)NC(=O)[C@H](CO)NC(=O)[C@@H](NC(=O)[C@H](Cc1ccccc1)NC(=O)[C@@H](NC(=O)CNC(=O)[C@H](Cc1c[nH]cn1)NC(=O)[C@H](CO)NC(=O)[C@@H](N)Cc1ccc(O)cc1)[C@@H](C)O)[C@@H](C)O)C(=O)N[C@@H](CC(=O)O)C(=O)N[C@@H](CO)C(=O)N[C@@H](C)C(=O)N[C@@H](CCCNC(=N)N)C(=O)N[C@@H](C)C(=O)N[C@@H](CCC(N)=O)C(=O)N[C@@H](CCC(=O)O)C(=O)N[C@@H](Cc1ccccc1)C(=O)N[C@H](C(=O)N[C@@H](CCCCN)C(=O)N[C@@H](Cc1c[nH]c2ccccc12)C(=O)N[C@@H](CC(C)C)C(=O)N[C@@H](CCC(=O)O)C(=O)N[C@@H](CC(=O)O)C(=O)N[C@@H](CCC(=O)O)C(=O)N1CCC[C@H]1C(=O)N[C@@H](CO)C(=O)N[C@@H](CO)C(=O)N[C@@H](CCCCNC(=O)COCCOCCNC(=O)COCCOCCNC(=O)CC[C@H](NC(=O)CCCCCCCCCCCCCCCCC(=O)O)C(=O)O)C(=O)N[C@@H](C)C(=O)N1CCC[C@H]1C(=O)N1CCC[C@H]1C(=O)N1CCC[C@H]1C(=O)N[C@@H](CO)C(N)=O)C(C)C [Compound B45] (H-YSHGTFTSDYSKYLDSARAQEFVKWLEDEPSSK([AEEA-AEEA-γGlu-C18 diacid])APPPS-NH2; N-terminus assumed)
GLP-1R pEC50 [1]: <6 | GluR pEC50 [2]: 9.8

CC(C)C[C@H](NC(=O)[C@H](Cc1ccc(O)cc1)NC(=O)[C@H](CCCCN)NC(=O)[C@H](CO)NC(=O)[C@H](Cc1ccc(O)cc1)NC(=O)[C@H](CC(=O)O)NC(=O)[C@H](CO)NC(=O)[C@@H](NC(=O)[C@H](Cc1ccccc1)NC(=O)[C@@H](NC(=O)CNC(=O)[C@H](CCC(N)=O)NC(=O)[C@H](CO)NC(=O)[C@@H](N)Cc1ccc(O)cc1)[C@@H](C)O)[C@@H](C)O)C(=O)N[C@@H](CC(=O)O)C(=O)N[C@@H](C)C(=O)N[C@@H](C)C(=O)N[C@@H](CCCNC(=N)N)C(=O)N[C@@H](C)C(=O)N[C@@H](CCC(N)=O)C(=O)N[C@@H](CCC(=O)O)C(=O)N[C@@H](Cc1ccccc1)C(=O)N[C@H](C(=O)N[C@@H](CCCCNC(=O)COCCOCCNC(=O)COCCOCCNC(=O)CC[C@H](NC(=O)CCCCCCCCCCCCCCCCC(=O)O)C(=O)O)C(=O)N[C@@H](Cc1c[nH]c2ccccc12)C(=O)N[C@@H](CC(C)C)C(=O)N[C@@H](CCC(=O)O)C(=O)N[C@@H](CC(=O)O)C(=O)N[C@@H](CCC(=O)O)C(=O)N1CCC[C@H]1C(=O)N[C@@H](CCCCN)C(=O)N[C@@H](CO)C(=O)N[C@@H](CCCCN)C(=O)N[C@@H](CO)C(=O)N1CCC[C@H]1C(=O)N1CCC[C@H]1C(=O)N1CCC[C@H]1C(=O)N[C@@H](CO)C(N)=O)C(C)C [Compound B38] (H-YSQGTFTSDYSKYLDAARAQEFVK([AEEA-AEEA-γGlu-C18 diacid])WLEDEPKSKSPPPS-NH2)
GluR pEC50 [2]: 9.6

CC(C)C[C@H](NC(=O)[C@H](Cc1ccc(O)cc1)NC(=O)[C@H](CCCCN)NC(=O)[C@H](CO)NC(=O)[C@H](Cc1ccc(O)cc1)NC(=O)[C@H](CC(=O)O)NC(=O)[C@H](CO)NC(=O)[C@@H](NC(=O)[C@H](Cc1ccccc1)NC(=O)[C@@H](NC(=O)CNC(=O)[C@H](CCC(N)=O)NC(=O)[C@H](CO)NC(=O)[C@@H](N)Cc1ccc(O)cc1)[C@@H](C)O)[C@@H](C)O)C(=O)N[C@@H](CC(=O)O)C(=O)N[C@@H](CCCCNC(=O)COCCOCCNC(=O)COCCOCCNC(=O)CC[C@H](NC(=O)CCCCCCCCCCCCCCCCC(=O)O)C(=O)O)C(=O)N[C@@H](C)C(=O)N[C@@H](CCCNC(=N)N)C(=O)N[C@@H](C)C(=O)N[C@@H](CCC(N)=O)C(=O)N[C@@H](CCC(=O)O)C(=O)N[C@@H](Cc1ccccc1)C(=O)N[C@H](C(=O)N[C@@H](CCCCN)C(=O)N[C@@H](Cc1c[nH]c2ccccc12)C(=O)N[C@@H](CC(C)C)C(=O)N[C@@H](CCC(=O)O)C(=O)N[C@@H](CC(=O)O)C(=O)N[C@@H](CCC(=O)O)C(=O)N1CCC[C@H]1C(=O)N[C@@H](CCCCN)C(=O)N[C@@H](CO)C(=O)N[C@@H](CCCCN)C(=O)N[C@@H](CO)C(=O)N1CCC[C@H]1C(=O)N1CCC[C@H]1C(=O)N1CCC[C@H]1C(=O)N[C@@H](CO)C(N)=O)C(C)C [Compound B39] (H-YSQGTFTSDYSKYLDK([AEEA-AEEA-γGlu-C18 diacid])ARAQEFVKWLEDEPKSKSPPPS-NH2)
GluR pEC50 [2]: 10.9

CC[C@H](C)[C@H](NC(=O)[C@@H](NC(=O)[C@H](Cc1ccccc1)NC(=O)[C@H](CCC(=O)O)NC(=O)[C@H](CCC(N)=O)NC(=O)[C@H](C)NC(=O)[C@H](CCCNC(=N)N)NC(=O)[C@H](CCCCN)NC(=O)C(C)(C)NC(=O)[C@H](CC(=O)O)NC(=O)[C@H](CC(C)C)NC(=O)[C@H](Cc1ccc(O)cc1)NC(=O)[C@H](CCCCN)NC(=O)[C@H](CO)NC(=O)[C@H](Cc1ccc(O)cc1)NC(=O)[C@H](CC(=O)O)NC(=O)[C@H](CO)NC(=O)[C@@H](NC(=O)[C@H](Cc1ccccc1)NC(=O)[C@@H](NC(=O)CNC(=O)[C@H](Cc1c[nH]cn1)NC(=O)[C@H](CO)NC(=O)[C@@H](N)Cc1ccc(O)cc1)[C@@H](C)O)[C@@H](C)O)C(C)C)C(=O)N[C@@H](Cc1c[nH]c2ccccc12)C(=O)N[C@@H](CC(C)C)C(=O)N[C@@H](CCC(=O)O)C(=O)N[C@@H](CC(=O)O)C(=O)N[C@@H](CCC(=O)O)C(=O)N1CCC[C@H]1C(=O)N[C@@H](CO)C(=O)N[C@@H](CO)C(=O)N[C@@H](CCCCNC(=O)COCCOCCNC(=O)COCCOCCNC(=O)CC[C@H](NC(=O)CCCCCCCCCCCCCCCCC(=O)O)C(=O)O)C(=O)N[C@@H](C)C(=O)N1CCC[C@H]1C(=O)N1CCC[C@H]1C(=O)N1CCC[C@H]1C(=O)N[C@@H](CO)C(=O)O [Compound B29] (H-YSHGTFTSDYSKYLD[Aib]KRAQEFVIWLEDEPSSK([AEEA-AEEA-γGlu-C18 diacid])APPPS-OH)
GLP-1R pEC50 [1]: 7.0 | GluR pEC50 [2]: 9.8
